Reference: publication PMC4336329 (PLoS ONE, 2015)
About 2,200 (0.71%) of roughly 310,000 compounds showed an effect of 50% or more. The effect is printed as a negative number. The list shows a part of the results.

Molecular target: human ether-à-go-go-related gene (hERG) potassium channel (human, UniProt Q12809)
Test: primary screen, population patch clamp on CHO cells stably expressing hERG

Chain of human ether-à-go-go-related gene (hERG) potassium channel (Q12809 whole entry, looked up): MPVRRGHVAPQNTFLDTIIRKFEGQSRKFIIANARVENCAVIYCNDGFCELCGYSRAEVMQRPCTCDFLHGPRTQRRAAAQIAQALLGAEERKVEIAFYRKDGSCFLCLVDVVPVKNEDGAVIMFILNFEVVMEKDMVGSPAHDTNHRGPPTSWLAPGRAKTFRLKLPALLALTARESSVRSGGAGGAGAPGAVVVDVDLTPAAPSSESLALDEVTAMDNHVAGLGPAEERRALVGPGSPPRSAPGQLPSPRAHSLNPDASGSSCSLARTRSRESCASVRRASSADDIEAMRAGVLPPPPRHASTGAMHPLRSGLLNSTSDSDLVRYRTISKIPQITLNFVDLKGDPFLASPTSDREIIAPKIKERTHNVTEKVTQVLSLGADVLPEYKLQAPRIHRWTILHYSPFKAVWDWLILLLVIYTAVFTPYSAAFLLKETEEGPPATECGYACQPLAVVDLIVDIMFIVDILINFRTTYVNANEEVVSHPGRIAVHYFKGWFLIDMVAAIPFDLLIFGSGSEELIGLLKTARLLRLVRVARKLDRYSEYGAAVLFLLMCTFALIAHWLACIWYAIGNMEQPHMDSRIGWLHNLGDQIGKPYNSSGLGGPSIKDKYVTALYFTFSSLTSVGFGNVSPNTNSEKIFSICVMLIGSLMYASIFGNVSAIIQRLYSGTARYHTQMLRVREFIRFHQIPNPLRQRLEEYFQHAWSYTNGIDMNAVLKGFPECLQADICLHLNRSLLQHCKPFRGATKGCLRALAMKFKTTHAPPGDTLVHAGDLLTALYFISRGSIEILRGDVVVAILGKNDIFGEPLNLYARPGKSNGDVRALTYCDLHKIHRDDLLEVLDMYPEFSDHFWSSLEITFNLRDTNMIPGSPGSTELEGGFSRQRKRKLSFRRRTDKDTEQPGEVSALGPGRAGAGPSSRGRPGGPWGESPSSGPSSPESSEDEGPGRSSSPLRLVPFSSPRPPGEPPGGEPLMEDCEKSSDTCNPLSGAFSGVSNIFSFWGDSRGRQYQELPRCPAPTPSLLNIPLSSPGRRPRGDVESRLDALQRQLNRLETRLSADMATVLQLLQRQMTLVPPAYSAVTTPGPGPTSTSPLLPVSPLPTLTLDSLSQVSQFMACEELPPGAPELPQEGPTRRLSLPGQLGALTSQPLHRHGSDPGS

| SMILES | hERG current change (%, negative = inhibition) at 1uM |
| --- | --- |
| CSC1=N/C(=C\c2cccc(Cl)c2)C(=O)N1N(C)C | 13.3% |
| CCn1c(SCC(=O)Nc2nc(C)cs2)nnc1-c1ccco1 | -21.4% |
| CCC(C)(C)NC(=O)C(c1ccncc1)N(C(=O)c1sc(C)nc1C)c1ccc(C)cc1 (centres unmarked) | 15.6% |
| Cc1cc(=O)oc2cc(NC(=O)C3CC(=O)N(Cc4ccccc4)C3)ccc12 (centres unmarked) | 8.91% |
| O=S(=O)(c1cccc(F)c1)N1CCCN(c2ccc(C(F)(F)F)cn2)CC1 | 7.54% |
| O=C(Cc1ccc(Cl)cc1)NCc1nc(-c2ccccc2)no1 | 11.4% |
| Clc1ccc(-c2cc(C3CCNCC3)[nH]n2)c(Cl)c1 | 4.35% |
| COc1cc2c(-c3ccc4[nH]ccc4c3)c(-c3ccc(C#N)cc3)oc(=O)c2cc1OC | 14.9% |
| Cc1nn(-c2ccccc2)c(C)c1C(=O)NCCc1ccc(Cl)cc1 | 9.8% |
| CN(Cc1ccccc1)C(=O)c1cn(C)c2ccc(S(=O)(=O)N3CCCC3)cc2c1=O | 13.8% |
| Cc1ccc(S(C)(=O)=NS(=O)(=O)c2cccc3nsnc23)cc1 (centres unmarked) | 9.72% |
| COc1cccc(N2CC(NC(=O)C(=O)c3c[nH]c4ccccc34)CC2=O)c1 (centres unmarked) | 17.2% |
| O=S(=O)(NC1CC1)c1ccc(Cl)cc1 | 10.8% |
| CCN1CCN(c2nc3c(c(=O)[nH]c(=O)n3C)n2Cc2ccccc2F)CC1 | 8.37% |
| CCCC(C)NC(=O)c1ccc(OCc2ccc(Cl)cc2)c(OC)c1 (centres unmarked) | 16.6% |
| CCN1CCN(CCC(=O)Nc2cc(OC)cc(OC)c2)CC1 | 14% |
| COc1ccc(C(=O)NCc2ccc3c(c2)OCO3)cc1 | 6.55% |
| CCOc1ccccc1C1CC(=O)NC(SCC(=O)Nc2nccs2)=C1C#N (centres unmarked) | 5.71% |
| Cc1cc(OC(F)F)ccc1NC(=O)Nc1ccc([N+](=O)[O-])cc1 | 1.76% |
| CCOc1cc(C(=O)OCC(=O)Nc2ncc(Cl)c(C)c2Cl)ccc1OCC(=O)N1CCOCC1 | 6.16% |
| O=C(Nc1ccc2c(c1)nc1n2CCN(C2CCCCC2)C1)NC1CCCCC1 | 2.2% |
| CC(Nc1c([N+](=O)[O-])c(=O)oc2ccccc12)c1ccccc1 (centres unmarked) | 4.9% |
| C/C(=N\Nc1ccc([N+](=O)[O-])cc1[N+](=O)[O-])c1cc2c(ccc3ccccc32)oc1=O | 7.62% |

| SMILES | hERG current change (%, negative = inhibition) at 1uM |
| --- | --- |
| Cc1cc(N2CCN(C)CC2)nc2ccc(NC(=O)c3ccccc3F)cc12 | -3.39% |
| CCCSc1nc2c(cnn2-c2ccccc2)c(=O)n1N | 2.5% |
| COc1ccc(OC)c(Nc2nc(-c3sc(C)nc3C)cs2)c1 | 9.09% |
| COc1ccc(C)cc1NC(=O)CNCc1cccs1.Cl | 7% |
| O=C1Nc2ccccc2SC1c1ccccc1 (centres unmarked) | 15.8% |
| COc1ccc(CC2SC(N)=NC2=O)cc1 (centres unmarked) | 16.4% |
| CCN(CC)S(=O)(=O)c1cccc(C(=O)N2CCCCC2)c1 | 8.23% |
| O=C(Cc1ccccc1F)Nc1cc(S(=O)(=O)N2CCOCC2)ccc1N1CCOCC1 | 6.8% |
| COC(=O)c1c(C(=O)OC)c(-c2cccc(Cl)c2)n2c1CS(=O)C2 (centres unmarked) | 20.5% |
| Nc1nonc1C(=O)NCCc1ccccc1 | 23.9% |
| COc1ccc2cc(C(=O)N3CCOCC3)sc(=O)c2c1OC | 10.5% |
| Cc1ccc(CCNC(=O)c2cccc(NC3=NC4CS(=O)(=O)CC4S3)c2)cc1 (centres unmarked) | 14.8% |
| COC(=O)C1SCC2C(=O)N(Cc3ccc(Cl)cc3)CC(=O)N21 (centres unmarked) | 16% |
| COC(=O)Cc1ccc(NC(=S)N2CCN(c3ccc(F)cc3)CC2)cc1 | 6.47% |
| CCCCCc1c(C)nc(Nc2ccc(F)cc2)[nH]c1=O | 9.73% |
| CCN(CC)CC.COc1cc2c(cc1OC)[C@H](C)N(C(=S)Nc1ccc(F)cc1)CC2 | 13.2% |
| CCCCC1=CC2=C(c3ccco3)C(=O)C(C)(OC(=O)c3ccc(OC)cc3)C(=O)C2=CN1C1CC1 (centres unmarked) | 4.3% |
| COc1ccc(/C=C2\CCCC3C2=NN(C(=O)COC(=O)CNC(=O)c2ccccc2)C3c2ccc(OC)cc2)cc1 (centres unmarked) | 22.9% |
| O=C(N/N=C1\CCCCc2ccccc21)c1ccccn1 | 6.16% |
| Cc1cc(C)nc(NC2=NCCN2C(=O)NC2CCCCC2)n1 | -5.48% |
| Cc1ccc(C(=O)NC23CC4CC(CC(C4)C2)C3)c(Cl)c1 | 16.4% |
| CCC(C(=O)OC)n1c(-c2ccccc2)nc2ccccc2c1=O (centres unmarked) | 14.9% |
| Cc1cc(OCCn2ccnc2)cc(C(C)C)c1.O=C(O)C(=O)O | 5.63% |

| SMILES | hERG current change (%, negative = inhibition) at 1uM |
| --- | --- |
| CCCCC(=O)Nc1c(-c2cccc(OC)c2)c(=O)c2ccccc2n1C | 7.9% |
| CCN(CC)CCCNC(=O)C1c2cc(OC)c(OC)cc2C(=O)N(C)C1c1cccs1 (centres unmarked) | 6.42% |
| Cc1nc2nc(Cc3ccccc3)[nH]n2c(=O)c1Cc1ccccc1 | 8.81% |
| Cc1cccc(N=Nc2c(N)n[nH]c2N)c1 | 20% |
| COc1ccc(C(=O)N(C)CC(=O)Nc2cccc(F)c2)cc1S(=O)(=O)NC1CCCC1 | 4.68% |
| O=C(CC(=O)N/N=C/c1ccccc1)NCc1ccccc1 | 8.85% |
| O=C(CC1C(=O)NCCN1C/C=C/c1ccccc1)NCCc1cnccn1 (centres unmarked) | 14.8% |
| CCn1c(SCC(=O)n2nc(C)cc2C)nnc1-c1ccc2c(c1)OCO2 | -0.488% |
| Cc1onc(-c2ccccc2)c1C(=O)Nc1sc2c(c1C#N)CCC2 | 0.929% |
| CCN(CC)C(=O)CSc1nc(N)c(C(=O)Nc2ccc(OC)cc2)s1 | 0.991% |
| CN(Cc1cccc(Cl)c1Cl)C(=O)c1ccc(NC(=O)CC#N)cc1 | 4.4% |
| CC1CCN(S(=O)(=O)CCNC(=O)c2ccc(F)cc2)CC1 | 6.14% |
| CCOC(=O)c1nn(-c2ccccc2)c2nnc(Cc3ccc(Cl)cc3)c(=O)n12 | -0.0021% |
| COc1cccc(C(=O)Nc2ccc(NC(=O)c3cc4ccccc4o3)c(OC)c2)c1 | 12.8% |
| Cc1cc(C)c2nc(NC(=O)C3CC(=O)N(Cc4ccco4)C3)sc2c1 (centres unmarked) | 1.2% |
| Cc1c(NC(=O)C(C)Sc2nccn2C)c(=O)n(-c2ccccc2)n1C (centres unmarked) | 15.3% |
| CCOC(=O)c1ccc2[nH]c3ccccc3c2c1 | 17.4% |
| CCOc1cc(CNC(CC)CO)ccc1OCC(=O)Nc1cccc(C(F)(F)F)c1 (centres unmarked) | -3.56% |
| CCCn1c(SCC(=O)c2ccc3c(c2)OCCO3)n[nH]c1=O | 15.7% |
| CCN(C(=O)c1ccc2c(Cl)c3c(nc2c1)CCC3)c1ccc(C)c(C)c1 | 15.1% |
| C=CCSc1nnc(-c2ccccc2N=Cc2c(C)[nH]n(-c3ccccc3)c2=O)c(=O)[nH]1 | 4.33% |
| CCOC(=O)NCc1ccc2c(c1)OCO2 | 15.6% |
| CCCn1c(CCNc2nc(-c3ccc(Cl)c([N+](=O)[O-])c3)cs2)nc2cc(Cl)c(Cl)cc21 | -21.7% |

| SMILES | hERG current change (%, negative = inhibition) at 1uM |
| --- | --- |
| c1ccc2c(CNC3CCCCCC3)c[nH]c2c1 | -3.42% |
| O=C1CC(NS(=O)(=O)c2cccnc2)CN1c1ccc(Cl)cc1 (centres unmarked) | 4.07% |
| COc1ccc(C)cc1S(=O)(=O)NCc1cccs1 | -2.26% |
| S=C(c1ccc(-c2cc(Cl)ccc2Cl)o1)N1CCCCC1 | 5.21% |
| CCC(=O)NCc1ccc2[nH]c(C)cc2c1 | 24.9% |
| COCCNC(=O)c1ccccc1NC(=O)c1ccccc1N(C)S(=O)(=O)c1ccccc1 | 11.4% |
| COCCCNc1nc(CC(C)C)nc2c1nnn2Cc1ccccc1 | 8.31% |
| COc1ccc(C2NCc3ccccc3-n3cccc32)cc1.Cl (centres unmarked) | 6.07% |
| CC1(C)C(=O)Nc2ccccc2N1C(=O)COC(=O)c1cccnc1 | 8.14% |
| C=CCNC(=S)NNC(=O)c1ccc(C)c(Cl)c1 | 33.6% |
| CCc1ccc(N2C(=O)C3NN=C(C(=O)OCc4ccccc4)C3C2=O)cc1 (centres unmarked) | 5.43% |
| CN1C(=S)SC(C)(NO)C1(C)C (centres unmarked) | 21.6% |
| COc1cc(C(=O)OCC(=O)NCC2CCCCC2)ccc1OCC(C)C | 3.08% |
| CCOC(=O)c1c(C)nc(SCC(N)=O)c(C#N)c1-c1ccccc1 | 17.4% |
| CCCCC1=CC2=CC(=O)C(C)(OC(=O)CC)C(=O)C2=CN1Cc1ccccc1 (centres unmarked) | -12.6% |
| O=C(Nc1ncccc1O)c1ccc(C(=O)c2ccccc2)cc1 | 0.367% |
| O=C(COc1ccc(Br)cc1)Nc1nc(-c2cccnc2)cs1 | 7.66% |
| O=C(CN1C(=O)c2cccc3cccc1c23)NCC1CCCO1 (centres unmarked) | 4.84% |
| O=C(C1CCCCN1S(=O)(=O)c1ccccc1)N1CCN(C(c2ccccc2)c2ccccc2)CC1 (centres unmarked) | -2.69% |
| CCc1ccccc1NC(=O)CN(C)C(=O)CN1C(=O)NC2(CCCCCC2)C1=O | -1.28% |
